This is one part of the list.
B1: ENSG00000070961:be:win_6101|3pUTR|ENSG00000070961|bound_else_gene|NA|bound_elsewhere_windowed (ssRNA)
RNA: GGGAGUUCUACAGUCCGACGAUCUAAAGAUCUUGGAUCCCAUUAUAUAGUAUGUAUAGCUGAAAUCUGUAAUUCAAUCACUUUUUCUCUUUUAUCCUCUAACCAAAAAAUUGUUUAAUUUUGCAUCCCAAAUGUUUUUAAUCUCAACAGAGGAUUGAGCAUCA
B2: chr1:36180537:36180567:+|3pUTR|ENSG00000116871|msi1_unk|total|mutant (ssRNA)
RNA: GGGAGUUCUACAGUCCGACGAUCCAUACACACAUAUACACUCACAGCCUCUCUGGCCUCUUCCCUUGGGGAGGGGCCACCUGCCGUAUUUGCCUUGAUUUGGUGGGGUACAGUGGAUGUGAAUACUGUAAACCGCUUGUGCUCCAACAGAGGAUUGAGCAUCA
B3: chr13:46334680:46343497:-|three_prime_utr|ENSG00000102445|control|control|control (ssRNA)
RNA: GGGAGUUCUACAGUCCGACGAUCGACUGUUCAACAUGCCUUAUGAUAACACCGAUUUGUGUCUAUUAUUGGUGACAUUGUUUUAGAUAUUGGGUAUUGUAUAUUAAGGAAAAAGAUGGUCUAUAUUCUCUUUAUUGCAUAUACCAACAGAGGAUUGAGCAUCA
B4: chr1:55154109:55154210:-|CDS|ENSG00000162402|msi1|total|mutant (ssRNA)
RNA: GGGAGUUCUACAGUCCGACGAUCCCUCCGUGAUGCAUAUGCAGUGAAAGAAGCAAUCAAGAGGAGCUACAUCAUCAAGUGCACCGAAGAUAUUAAGAGGGUUGGUUUCAGCUUUUAUCUGAUUUUGUUGUCCGAGCAACAGUACAACAGAGGAUUGAGCAUCA
B5: chr13:27440139:27440263:-|CDS|ENSG00000122033|unk|total|mutant (ssRNA)
RNA: GGGAGUUCUACAGUCCGACGAUCAAUGAAGGAAAAAAGACAAAAAAGAAUAAAACAGCUUUCCGUAACGUUGGAAGAAAAAUCCGUCAGCGAGUUAUUCACUUAUUUGAUGAGAAGGGCAAUGAUUUGGGAAACAUGCACCGACAACAGAGGAUUGAGCAUCA
B6: chr1:93365539:93365640:+|3pUTR|ENSG00000117505|unk|FALSE|unique (ssRNA)
RNA: GGGAGUUCUACAGUCCGACGAUCAGGAGGCAAAAUUGCACCCUGUUGAAAACCACCACCUUAGAUCAUCUAGGUUUUACUUUUAGGAUAAGACACUUGAGGGAAAGGCUGUGAAACUGAACCUCUGUUAGAAGCAACACACAGCAACAGAGGAUUGAGCAUCA
B7: chr6:350928:351029:+|3pUTR|ENSG00000112679|unk|total|mutant (ssRNA)
RNA: GGGAGUUCUACAGUCCGACGAUCCCACAGAGUUCCGGCUGGUGCUGCCAAAAAGAAAAGCAACACCGAGUUUAAGUAUCCAGCCGUGAUUUGUAAACUUGUUUUUCAUUUGAAGCUGAAUAUAUACGCCGUCAUGUUUAUGUUCAACAGAGGAUUGAGCAUCA
B8: ENSG00000136451:be:win_2151|3pUTR|ENSG00000136451|bound_else_gene|NA|bound_elsewhere_windowed (ssRNA)
RNA: GGGAGUUCUACAGUCCGACGAUCUAUGCAAAGCAUAUGAUAAUUUAUCAUUCUAACUUCAACGUAUAAUAGGGAUUGUGACCUGAUAUUUGGAGAUGUAAAUAUUGCUCAGCAUAUUAAUCCCGAUGGAAUAUAGCAUUGUAGCAACAGAGGAUUGAGCAUCA
B9: chrX:120627021:120627135:-|CDS|ENSG00000171155|unk|total|mutant (ssRNA)
RNA: GGGAGUUCUACAGUCCGACGAUCUUGAAGGGUGUGAUGCUUGGAAGCAUUUUCUGUGCUUUGAUCACUAUGCCCGGACACAUCCGGAUUGGUCAUGGAAACCGAAUGCACCACCAUGAGCAUCAUCACCUACAAGCUCCUAACCAACAGAGGAUUGAGCAUCA
B10: chr14:100884374:100884478:-|CDS|ENSG00000254656|unk|FALSE|unique (ssRNA)
RNA: GGGAGUUCUACAGUCCGACGAUCGAGGAGUCAUGCAACGGUUCACACCAGGCAAGGGGGGAUCCACUCAGUGGAGCAUCUGAUAGGAUGAAAGAAGCAUCAGUCAACCCAUCGGGAGCCCGAGAAGAACAAGAGGCUCACACUCAACAGAGGAUUGAGCAUCA
B11: chr18:9257137:9257239:+|CDS|ENSG00000101745|unk|total|mutant (ssRNA)
RNA: GGGAGUUCUACAGUCCGACGAUCUCUCCGGUCAUCUUCUGCCGAAGAUGUUAAACUAAUUAUAAGCGAGGGGAGACCUACCACCGAAGUUCGAAGAUGCCGCAUGCCUUCUGUCAUUUGUGAACAUACCAAACAAUUCCAAACCAACAGAGGAUUGAGCAUCA
B12: chr16:67175568:67175669:+|3pUTR|ENSG00000140939|msi1|FALSE|unique (ssRNA)
RNA: GGGAGUUCUACAGUCCGACGAUCUUAGAGCUCACAGCCUUGGGAAGUGAGACUAGAAGAGGGGAGCAGAAAGGGACCUUGAGUAGACAAAGGCCACACACAUCAUUGUCAUUACUGUUUUAAUUGUCUGGCUUCUCUCUGGACCAACAGAGGAUUGAGCAUCA
B13: chr2:39051162:39051270:-|CDS|ENSG00000115904|unk|FALSE|unique (ssRNA)
RNA: GGGAGUUCUACAGUCCGACGAUCAAAUAUAUUUAGUCGCAUAGUAGAUAUACAUGAACUUAGUGUAAAGUUACUGGGCCAUAUAGAAGAUACAGUAGAAAUGACAGAUGAAGGCAGUCCCCAUCCACUAGUAGGAAGCUGCUUCAACAGAGGAUUGAGCAUCA
B14: chrX:154027874:154027956:-|3pUTR|ENSG00000169057|msi1_unk|total|mutant (ssRNA)
RNA: GGGAGUUCUACAGUCCGACGAUCUGGUCCGAAGUGAGGGAGUUUGCCCCGUUCUGUUUGCCGAGUCUCACCGUUGGACUUUCCCGCAUAUAUGUGUCCAUUUCCUUAUGCUGUAAAAGCAAGUCCUGCAACCAAACUCCCAUCCAACAGAGGAUUGAGCAUCA

target: MSI1 full-length (mouse, UniProt Q61474 1-362); experiment: nsRBNS (natural sequence RNA bind-n-seq); RBNS binding buffer (assumed for nsRBNS): 25 mM Tris pH 7.5, 150 mM KCl, 3 mM MgCl2, 0.01% Triton X-100, 500 ug/ml BSA, 20 U/ml SUPERase-In, 4 C; UNK is unkempt and MSI1 is Musashi-1; names of the RNAs are library labels; protein concentration not given here; high values mean tight binding
Sequence of UniProt Q61474 (Q61474 whole entry): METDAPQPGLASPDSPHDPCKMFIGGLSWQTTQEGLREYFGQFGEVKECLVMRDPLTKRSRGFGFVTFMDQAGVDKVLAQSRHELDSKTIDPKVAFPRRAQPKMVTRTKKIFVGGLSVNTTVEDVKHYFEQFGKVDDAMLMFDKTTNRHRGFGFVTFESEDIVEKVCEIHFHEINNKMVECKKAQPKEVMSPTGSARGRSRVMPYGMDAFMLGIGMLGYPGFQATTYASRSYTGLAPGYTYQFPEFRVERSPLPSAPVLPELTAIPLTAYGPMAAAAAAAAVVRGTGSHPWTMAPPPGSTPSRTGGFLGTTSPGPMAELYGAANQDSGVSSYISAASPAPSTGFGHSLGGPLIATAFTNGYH

**Q.** Which binding signal does the source give for B1 here?
**A.** 30 enrichment R

**Q.** How did the binding signal turn out when B2 was run?
**A.** 0.331 enrichment R

**Q.** B3 was tested. Which binding signal did it give?
**A.** 0.926 enrichment R

**Q.** For B4, which binding signal is on record?
**A.** 0.36 enrichment R

**Q.** B5 was tested. Which binding signal did it give?
**A.** 0.363 enrichment R

**Q.** How did the binding signal turn out when B6 was run?
**A.** 7.14 enrichment R

**Q.** How did the binding signal turn out when B7 was run?
**A.** 0.238 enrichment R

**Q.** B8 was tested. Which binding signal did it give?
**A.** 2.06 enrichment R

**Q.** Which binding signal does the source give for B9 here?
**A.** 0.203 enrichment R

**Q.** For B10, which binding signal is on record?
**A.** 0.4 enrichment R

**Q.** Which binding signal does the source give for B11 here?
**A.** 0.349 enrichment R

**Q.** With B12 as the binder, how does the binding signal read?
**A.** 0.616 enrichment R

**Q.** With B13 as the binder, how does the binding signal read?
**A.** 15.1 enrichment R

**Q.** For B14, which binding signal is on record?
**A.** 0.775 enrichment R
